SMILES strings stand for the structures. About 450 (0.94%) of roughly 48,000 compounds were called active. Roughly 19% stayed inconclusive and do not appear here. Calls come from the whole dose curve; as a rule, active = well fitted inhibition curve with a large enough effect; inconclusive = small, poorly fitted or top-dose-only effect; inactive = no such curve, though single readings can be large or run the other way. This is one part of the list.

The assay can be described thus: Primary qHTS for Identification of Small Molecule Inhibitors of Huntingtin Promoter Activity. Note: nearly all actives have a fitted effect of over 50% in size. The settings on record: HEK293 HTT promoter firefly luciferase reporter (activity 0% = vehicle and -100% = no light), 24 h; series mostly up to 57.5 µM; activity change, negative = inhibition: at the top concentration. An outline of the steps:
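HEK293 Fluc reporter, 2,500 cells/well, 24 h pre-culture; cpds up to 57.5 uM final, 24 h 37 degrees C; Dual-Glo, 10 min RT; normalized vehicle = 0%, zero RLU = -100%.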
Regarding `NC(=O)c1c(NC(=O)c2cc(-c3ccc(F)cc3)on2)sc2c1CCCC2`, the “activity change, negative = inhibition” value was inactive: -1.53%. In the case of `Cc1cccc(NC(=O)Cn2nnc(C(=O)NCc3cccs3)c2N)c1` it was inactive: -8.29%.

`CCC(C(=O)Nc1ccc(C(C)C)cc1)n1nc(C)n2c(cc3cc(C)ccc32)c1=O` (configuration not stated): the “activity change, negative = inhibition” value was inactive: -3.59%. In the case of `COc1ccc(Cl)cc1NC(=O)CCn1c(=O)c2cccn2c2ccccc21` it was inactive: -13.8%; in that of `Cc1ccc(C)c(Cn2c(=O)cc(C(F)(F)F)c3c(C)nn(C)c32)c1`, inactive: -12.9%; in that of `CCOc1ccc2oc(=O)cc(CN3CCN(Cc4ccc(C)cc4)CC3)c2c1`, inactive: -12.5%. As for `Cc1ccc(Nc2c3c(nc4nc(-c5cccs5)nn24)CCCC3)cc1F`, the “activity change, negative = inhibition” value is inactive: -23%.

`Cc1oc(-c2ccc(Cl)cc2)nc1CS(=O)CC(=O)NCCc1ccccc1` (configuration not stated): the “activity change, negative = inhibition” value was inactive: -21.3%. On to `CCN(CC)CC(=O)OCC(=O)[C@@]1(O)CC[C@H]2[C@@H]3CCC4=CC(=O)CC[C@]4(C)[C@H]3[C@@H](O)C[C@@]21C`, for which the “activity change, negative = inhibition” value is inactive: -4.68%.

Consider `COc1ccccc1OCC(=O)N(Cc1cccs1)C1CCS(=O)(=O)C1` (configuration not stated), for which the “activity change, negative = inhibition” value was inactive: -16.1%. As for `CCOC(=O)Cn1nc(C)c(NC(=O)COc2ccccc2)c1C`, the figure is inactive: -4.87%; as for `COc1ccc(S(=O)(=O)NC(C)(C)C)cc1-c1nnc2c3ccccc3c(C)nn12`, inactive: 0.417%.

With `COc1ccccc1CNc1nc(-c2ccco2)nn1S(C)(=O)=O`, the “activity change, negative = inhibition” value was inactive: 26.2%. For the molecule `COc1ccc(-n2cc(-c3ccccc3)nc2SCC(=O)Nc2ccccc2C)cc1`, the “activity change, negative = inhibition” value is inactive: -24.2%.

On to `Cc1ccc(CNc2nc3ccc(Cl)cc3n3nnnc23)cc1`, for which the “activity change, negative = inhibition” value was inactive: 9.12%.

Consider `COc1cc(NC(=O)CCn2c(=O)oc3ccccc32)cc(OC)c1OC`, for which the “activity change, negative = inhibition” value is inactive: -8.79%. In the case of `Cc1cc(-c2ccc(C)c(S(=O)(=O)Nc3ccccn3)c2)on1` it was inactive: -20.9%; in that of `COc1cc(OC)c(NS(=O)(=O)c2c(C(=O)N3CCCCCC3)c(C)n(C)c2C)cc1Cl`, inactive: -1.49%. As for `CSc1ccc(NC(=O)C2CCN(c3ncccn3)CC2)cc1`, the figure is inactive: 17%; as for `CCN1CCN(c2ncc3c(n2)CCN(CC(C)C)C3)CC1`, inactive: -15.1%. Regarding `COc1ccc(Br)cc1CNC(=O)c1ccc2nc(C(C)C)oc2c1`, the “activity change, negative = inhibition” value is inactive: -23.7%. As to `COc1ccccc1CNC(=O)CCCCn1c(=O)c2ccccc2n(CC(=O)Nc2c(C)cc(C)cc2C)c1=O`, the “activity change, negative = inhibition” value is inactive: 21.5%. As for `COc1ccccc1Cc1nc2ccccc2nc1SCC(=O)Nc1ccc2c(c1)OCO2`, the figure is inactive: -4.99%; as for `CC(=O)[C@]1(O)Cc2c(O)c3c(c(O)c2[C@@H](O[C@H]2C[C@H](N)[C@H](O)[C@H](C)O2)C1)C(=O)c1ccccc1C3=O`, inactive: -40%. As for `Cc1ccc(NC(=O)CN2C(=O)C(c3ccc(C(C)(C)C)cc3)=NC2(C)C)cc1`, the “activity change, negative = inhibition” value is inactive: -28.9%.

Take `CCCN(CCC)C(=O)CSc1c2c(nc3ccc(Cl)cc13)CCCC2`: the “activity change, negative = inhibition” value was inactive: -16.2%.

For `O=[N+]([O-])c1cc(-c2nc(-c3ccccc3)no2)ccc1NCc1cccnc1`, the “activity change, negative = inhibition” value is inactive: -23.4%.

Turning to `CN1C(CSCC(F)(F)F)Nc2cc(Cl)c(S(N)(=O)=O)cc2S1(=O)=O` (configuration not stated), the “activity change, negative = inhibition” value is inactive: -5.24%.

For the molecule `Cc1cc(C)cc(-n2c(SCC(=O)Nc3cccc(F)c3)nc3c([nH]c4ccccc43)c2=O)c1`, the “activity change, negative = inhibition” value was inactive: -20.2%.

For the molecule `Cc1ccc(C)c(NC(=O)C(Cc2ccccc2)n2cccc2)c1` (configuration not stated), the “activity change, negative = inhibition” value is inactive: -18.9%. With `Cc1ccc(C(=O)Nc2ccc(-c3nc4ccccc4o3)cc2)cc1Cl`, the “activity change, negative = inhibition” value is inactive: 28.5%. As for `COCCNc1nc2c(c(=O)n(Cc3cccc(Cl)c3)c(=O)n2C)n1C`, the figure is inactive: -3.9%.

Turning to `COc1ccc2c(c1)c1c(c(=O)n(Cc3ccccc3)c(=O)n1Cc1ccccc1Cl)n2C`, the “activity change, negative = inhibition” value is inactive: -15.2%. As for `COc1ccc(OCC(=O)Nc2c(C(=O)N3CCN(c4ccccc4)CC3)oc3ccccc23)cc1`, the figure is inactive: -11.5%; as for `CCc1ccc(NC(=O)C2=C(C)C(=O)OC23CCCCC3)cc1`, inactive: -13.6%; as for `CCOC(=O)c1c(-c2ccc(OC)c(OC)c2)csc1NC(=O)c1ccc(C)cc1`, inactive: -0.722%. `O=C(O)c1cccc(NC(=O)c2cc3cc(Br)cc(Br)c3oc2=O)c1`: the “activity change, negative = inhibition” value was inactive: 11.5%.

Turning to `O=C(NCc1ccc(F)cc1)c1cc2cccc3c2n1CCS3`, the “activity change, negative = inhibition” value is inactive: -29.1%.

As for `COC(=O)c1ccc(NC(=O)C(=O)NCC(c2cccnc2)N2CCN(c3ccccc3)CC2)cc1` (configuration not stated), the “activity change, negative = inhibition” value is inactive: -24.4%.

Take `Cc1ccc(NC(=O)c2cnc3cc(C)ccn3c2=O)c(C)c1`: the “activity change, negative = inhibition” value is inactive: 58%.

On to `COc1c2occc2c(OC)c2c(=O)cc(C)oc12`, for which the “activity change, negative = inhibition” value is inactive: 4.89%. As for `CCCCSc1nc(-c2cccc(OC)c2)nc2c1Cc1c(CO)cnc(C)c1O2`, the figure is inactive: -8.89%; as for `CC1(C)S[C@@H]2[C@H](NC(=O)Cc3ccccc3)C(=O)N2[C@H]1C(=O)O` (tested in a mixture with another compound), inactive: -3.06%. As to `CC(C)C[C@H](NC(=O)CNC(=O)[C@H](Cc1ccc(O)cc1)NC(=O)[C@H](CO)NC(=O)[C@H](Cc1c[nH]c2ccccc12)NC(=O)[C@H](Cc1cnc[nH]1)NC(=O)[C@@H]1CCC(=O)N1)C(=O)N[C@@H](CCCN=C(N)N)C(=O)N1CCC[C@H]1C(=O)NCC(N)=O` (stereo in doubt), the “activity change, negative = inhibition” value was inactive: 11%. As for `CC1CCCCN1C(=O)CN1CCSc2ccccc21` (configuration not stated), the figure is inactive: -19%; as for `CCC(=O)Nc1ccc(CC)cc1-c1nc2ccccc2n(CC(=O)c2ccc(OC)cc2)c1=O`, inactive: -0.761%; as for `Cc1ccc(-c2cc(NC(=O)c3cccc(C)c3)on2)cc1`, inactive: 28.4%.

(Values after PubChem BioAssay AID1508623 (National Center for Advancing Translational Sciences (NCATS), 2021).)
